Data as given in PubChem BioAssay AID1347120 (National Center for Advancing Translational Sciences (NCATS), 2019).
Screen size: about 390,000 compounds; about 930 (0.24%) were called active. This list was built around the results that the source calls inconclusive (neither active nor inactive); the mix of calls is not that of the screen. Calls follow the shape of the dose curve; as a rule, active = well fitted activation curve with a large enough effect; inconclusive = small, poorly fitted or top-dose-only effect; inactive = no such curve, though single readings can be large or run the other way. Potencies of inconclusive entries are doubtful fits and often do not repeat.

Test: qHTS for Suppressors of FUS Proteinopathy: Primary screen using FUS-linked yeast assay; also: nearly all actives have a fitted effect of over 55% in size;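 as to growth rescue (activation): plate controls were DMSO vehicle for no effect and reference control for full effect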
Details: S. cerevisiae FUS-expressing, OD600, 24 h; Potency: growth rescue; growth rescue (activation): at 76.6 µM (top of the series)
Summary of the method: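 Toxicity suppression screen in FUS-yeast. Cells induced with 2% galactose, starting OD 0.005, treated 24hr at 30C with compounds at multiple final concentrations; growth by OD600.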
Potency is read from the fitted curve at half-maximal effect; tags tell the direction and shape of the fitted curve.

**Q.** Which Potency does the source give for `Cc1nc(N2CCN(S(=O)(=O)c3ccccc3)CC2)c2cc(-c3ccccc3)sc2n1` here?
**A.** The Potency was inconclusive: 50.1 µM [activator, single point].

**Q.** With `CN(C)S(=O)(=O)N1CCC(Oc2cccc(C(=O)NC3CCCCC3)c2)CC1` as the compound, how does the “growth rescue (activation)” value read?
**A.** The value was inactive: 1.76%.

**Q.** Which Potency does the source give for `Cc1cc2ccccc2n1CCNC(=O)c1ccc(S(=O)(=O)N2CCCCC2)cc1` here?
**A.** Its Potency is inconclusive: 35.5 µM [activator, single point].

**Q.** Which Potency does the source give for `O=C(CSCc1nc2ccccc2[nH]1)N1CCN(c2ccc(F)cc2)CC1` here?
**A.** The Potency was inconclusive: 31.6 µM [activator, partial curve, poor fit].

**Q.** For `CC(C)Oc1cc(F)ccc1-c1cc(C(=O)NCC2CCCCC2)[nH]n1`, which Potency is on record?
**A.** The Potency was inconclusive: 44.7 µM [activator, partial curve, poor fit].

**Q.** With `CCOC(=O)c1cc(-c2ccccc2)n(-c2cccc(C(=O)Nc3cccc(C)c3)c2)c1C` as the compound, how does the Potency read?
**A.** Its Potency is inconclusive: 25.1 µM [activator, partial curve, poor fit].

**Q.** With `Cc1ccc(S(=O)(=O)N2CCN(C3CC(=O)N(Cc4ccccc4)C3=O)CC2)cc1C` (configuration not stated) as the compound, how does the Potency read?
**A.** The Potency was inconclusive: 31.6 µM [activator, single point].

**Q.** Which “growth rescue (activation)” value does the source give for `O=C(NCCc1c[nH]c2ccccc12)OCc1cn(-c2ccc(Cl)cc2)nn1` here?
**A.** The value was inactive: 32.8%.

**Q.** For `O=C(CSc1nnc(Cc2csc(Nc3cccc(Cl)c3)n2)o1)N1CCc2ccccc21`, which Potency is on record?
**A.** The Potency was inconclusive: 31.6 µM [activator, partial curve, poor fit].

**Q.** With `COc1ccc(-c2nn(-c3ccccc3)cc2C(=O)NC(=S)NNC(=O)c2ccncc2)cc1` as the compound, how does the Potency read?
**A.** The Potency was inconclusive: 28.2 µM [activator, single point].

**Q.** For `CC(=O)N1CCN(Cc2nc3cc(NC(=O)NC4CCCCC4)ccc3n2C)CC1`, which Potency is on record?
**A.** Its Potency is inconclusive: 17.8 µM [activator, partial curve, poor fit].

**Q.** With `CSc1nc(N)c(NC(=O)c2ccc(Br)o2)c(=O)[nH]1` as the compound, how does the Potency read?
**A.** The Potency was inconclusive: 50.1 µM [activator, single point].

**Q.** For `Cc1ccc(C(=O)Nc2ccc(S(=O)(=O)NC3=NCCCCC3)cc2)c(C)c1`, which “growth rescue (activation)” value is on record?
**A.** Its value is inactive: 8.32%.

**Q.** With `Cc1ccc(OCc2nc(-c3ccc(C(=O)N4CCN(c5cc(Cl)ccc5C)CC4)cc3)oc2C)cc1` as the compound, how does the “growth rescue (activation)” value read?
**A.** Its value is inactive: 6.76%.

**Q.** With `O=C(Nc1ccon1)c1cc2c(s1)CCCC2` as the compound, how does the “growth rescue (activation)” value read?
**A.** Its value is inactive: 25%.

**Q.** With `COC(=O)C1=C(C)NC(=O)CC1c1cccc(OC)c1OC` (configuration not stated) as the compound, how does the “growth rescue (activation)” value read?
**A.** Its value is inactive: 10.9%.

**Q.** For `CC1(C(=O)NS(=O)(=O)c2ccc3c(c2)CCO3)CCN1C(=O)C1(c2ccc(Cl)cc2)CCC1` (configuration not stated), which Potency is on record?
**A.** Its Potency is inconclusive: 39.8 µM [activator, single point].

**Q.** With `CN1CCC[C@H]1CCNc1ccc2c(=O)c3ccccc3n(C)c2c1` as the compound, how does the Potency read?
**A.** Its Potency is inconclusive: 50.1 µM [activator, single point].

**Q.** With `NC(=S)N/N=C/c1ccc2cccc(OCc3ccccc3)c2n1` as the compound, how does the Potency read?
**A.** Its Potency is inconclusive: 50.1 µM [activator, single point].

**Q.** For `CC(C)c1nn2c(=O)cc(COC(=O)CNC(=O)c3ccccc3Cl)nc2s1`, which “growth rescue (activation)” value is on record?
**A.** The value was inactive: 1.36%.

**Q.** For `CC1CCC2(CCC(=O)N2CCCOC(=O)c2ccccc2)CC1` (configuration not stated), which “growth rescue (activation)” value is on record?
**A.** Its value is inactive: 15.5%.

**Q.** For `CCCCN(C(=O)c1ccc2c(c1)S(=O)(=O)N=C1CCCCCN12)c1c(N)n(CCCC)c(=O)[nH]c1=O`, which Potency is on record?
**A.** Its Potency is inconclusive: 50.1 µM [activator, partial curve, poor fit].

**Q.** For `CCOC(=O)C1CCN(C2=C(NS(=O)(=O)c3ccc(Br)cc3)C(=O)c3ccccc3C2=O)CC1`, which Potency is on record?
**A.** The Potency was inconclusive: 31.6 µM [activator, partial curve, poor fit].

**Q.** Which Potency does the source give for `CCc1ccc(CN(C)C(=O)c2cc(COc3cc(C)c(Cl)c(C)c3)on2)nc1` here?
**A.** The Potency was inconclusive: 25.1 µM [activator, partial curve, poor fit].

**Q.** For `CCC(C)(C)C(=O)Nc1ncc(S(=O)(=O)c2ccc([N+](=O)[O-])cc2)s1`, which Potency is on record?
**A.** The Potency was inconclusive: 20 µM [activator, partial curve, poor fit].

**Q.** For `CCCN(CC(=O)Nc1ccccc1C)C(=O)c1ccc(S(=O)(=O)N2CCCCC2)cc1`, which Potency is on record?
**A.** Its Potency is inconclusive: 50.1 µM [activator, single point].

**Q.** For `Cc1cc2occ(CC(=O)N(C)CC(=O)Nc3ccc(F)cc3)c2cc1C`, which Potency is on record?
**A.** Its Potency is inconclusive: 35.5 µM [activator, single point].

**Q.** With `O=C(NCCn1cc(SCc2cccc(F)c2)c2ccccc21)c1cccc(C(F)(F)F)c1` as the compound, how does the Potency read?
**A.** Its Potency is inconclusive: 44.7 µM [activator, single point].

**Q.** For `Cc1ccc(N(Cc2cccs2)C(=O)c2ccccc2)cc1`, which Potency is on record?
**A.** Its Potency is inconclusive: 3.16 µM [activator, full curve].

**Q.** For `CCCCC(=O)N1CCN(C(=O)c2ccc3nc(C)n(C4CCCC4)c3c2)CC1`, which “growth rescue (activation)” value is on record?
**A.** The value was inactive: -1.7%.

**Q.** With `C[C@H](CO)N1C[C@H](C)[C@@H](CN(C)S(=O)(=O)c2cccs2)Oc2ccc(NC(=O)Nc3ccc4c(c3)OCO4)cc2C1=O` as the compound, how does the Potency read?
**A.** Its Potency is inconclusive: 14.1 µM [activator, partial curve].

**Q.** For `CC(=O)c1cnc2c(-c3ccccc3)c(-c3ccccc3)nn2c1C`, which Potency is on record?
**A.** Its Potency is inconclusive: 5.01 µM [activator, full curve, poor fit].

**Q.** With `C=CCNC(=O)C(C#N)c1nc2ccccc2nc1N1CCCCCC1` (configuration not stated) as the compound, how does the Potency read?
**A.** The Potency was inconclusive: 28.2 µM [activator, single point].

**Q.** Which Potency does the source give for `Cc1noc(/C=C/N(C)C)c1S(=O)(=O)N1CCN(c2ccccc2)CC1` here?
**A.** Its Potency is inconclusive: 35.5 µM [activator, single point].

**Q.** For `CCOC(=O)N1CCC(NC(=O)c2cc(C(=O)Nc3ccc(S(=O)(=O)N4CCCCC4)cc3)ccc2CO)CC1`, which Potency is on record?
**A.** The Potency was inconclusive: 35.5 µM [activator, single point].

**Q.** Which Potency does the source give for `C[C@H](NC(=O)c1nc[nH]c1C(=O)NC(c1ccccc1)c1ccccc1)C(=O)OC(C)(C)C` here?
**A.** The Potency was inconclusive: 15.8 µM [activator, partial curve].

**Q.** With `O=C(Nc1ccc(F)cc1)N1CCN(c2ccc3nnc(-c4ccc(F)cc4)n3n2)CC1` as the compound, how does the Potency read?
**A.** The Potency was inconclusive: 25.1 µM [activator, partial curve, poor fit].

**Q.** For `CCOC(=O)c1ccc(-c2ccc(N3C(c4ccsc4)=Cc4ccc(F)cc4C3c3c[nH]c4ccc(C#N)cc34)cc2)cc1F` (configuration not stated), which Potency is on record?
**A.** Its Potency is inconclusive: 22.4 µM [activator, partial curve, poor fit].

**Q.** Which Potency does the source give for `COc1ccc(-c2c3c(=O)n(C)c(=O)n(C)c3cn2-c2cccc(N)c2)cc1` here?
**A.** Its Potency is inconclusive: 35.5 µM [activator, single point].

**Q.** Which Potency does the source give for `C[C@@H](NC(=O)c1nc[nH]c1C(=O)N[C@@H](Cc1ccccc1)C(=O)OCc1ccccc1)c1ccccc1` here?
**A.** Its Potency is inconclusive: 12.6 µM [activator, partial curve, poor fit].

**Q.** With `CCOC(=O)CC(NC(=O)CCc1c(C)nc2c(-c3ccccc3)c(C)nn2c1C)c1ccc(C)cc1` (configuration not stated) as the compound, how does the Potency read?
**A.** Its Potency is inconclusive: 25.1 µM [activator, single point].

**Q.** With `CNc1nc(-c2ccc3c(c2)CCN3S(=O)(=O)c2ccccc2)c(C)s1` as the compound, how does the Potency read?
**A.** The Potency was inconclusive: 44.7 µM [activator, partial curve, poor fit].

**Q.** Which “growth rescue (activation)” value does the source give for `CC1CCN(S(=O)(=O)c2ccc3c(c2)c(=O)c(C(=O)NCc2ccc(Cl)cc2)cn3C)CC1` here?
**A.** Its value is inactive: 9.22%.

**Q.** With `CCC1CCC(C(=O)NC(C(=O)NCCN(CC(C)C)CC(C)C)C(C)C)CC1` (configuration not stated) as the compound, how does the “growth rescue (activation)” value read?
**A.** Its value is inactive: -5.39%.

**Q.** With `COCCCn1c(C(=O)N2CCOCC2)cc2c(=O)n3cccc(C)c3nc21` as the compound, how does the “growth rescue (activation)” value read?
**A.** Its value is inactive: -1.12%.

**Q.** With `CC(=O)c1cccc(-c2ccnc3c2CC(C(=O)Nc2cccc(OC(F)(F)F)c2)O3)c1` (configuration not stated) as the compound, how does the “growth rescue (activation)” value read?
**A.** Its value is inactive: 32.5%.

**Q.** For `O=C(Nc1cccc(Cl)c1)N1CCN2C(=O)c3ccccc3C12c1ccccc1` (configuration not stated), which Potency is on record?
**A.** The Potency was inconclusive: 20 µM [activator, partial curve].

**Q.** With `NC(=O)c1c(NC(=O)C2CCCO2)sc2c1CCC2` (configuration not stated) as the compound, how does the Potency read?
**A.** The Potency was inconclusive: 22.4 µM [activator, single point].

**Q.** For `CCOc1ccccc1NC(=O)CCSc1nc2n[nH]c(C)c2c(=N)n1-c1ccccc1Cl`, which Potency is on record?
**A.** The Potency was inconclusive: 17.8 µM [activator, partial curve].

**Q.** With `C=CCC[C@H](Cc1ccc(F)cc1)C(=O)OC[C@H](Cc1c[nH]c2ccccc12)NC(=O)[C@H](CC=C)CC(=O)N(CCO)Cc1ccccc1` as the compound, how does the Potency read?
**A.** Its Potency is inconclusive: 6.31 µM [activator, full curve].

**Q.** Which Potency does the source give for `Cc1csc(NC(=O)c2ccc(C)c(S(=O)(=O)N3CCCCC3)c2)n1` here?
**A.** Its Potency is inconclusive: 50.1 µM [activator, single point].

**Q.** With `NC(=O)C1CCN(c2nc(-c3ccc4c(c3)OCCCO4)cs2)CC1` as the compound, how does the Potency read?
**A.** Its Potency is active: 25.1 µM.

**Q.** Which “growth rescue (activation)” value does the source give for `O=C(Nc1nc(-c2cccs2)c(-c2ccccc2)s1)c1ccco1` here?
**A.** The value was inactive: 10.4%.

**Q.** Which “growth rescue (activation)” value does the source give for `COc1cccc(CNC(=O)c2[nH]c3cc(C)ccc3c2Sc2ccccc2)c1` here?
**A.** The value was inactive: -17.7%.

**Q.** With `COc1cccc(-c2nnc3n(Cc4ccc(C)cc4)c(=O)c4ccccc4n23)c1O` as the compound, how does the Potency read?
**A.** Its Potency is inconclusive: 31.6 µM [activator, partial curve, poor fit].

**Q.** For `CCOC(=O)c1ccccc1NC(=O)Cn1c(=O)n(CCC(=O)NCc2ccccc2OC)c(=O)c2ccccc21`, which “growth rescue (activation)” value is on record?
**A.** The value was inactive: -4.66%.

**Q.** Which “growth rescue (activation)” value does the source give for `COc1cccc2cc(C(C)=O)oc12` here?
**A.** Its value is inactive: 5.73%.

**Q.** Which “growth rescue (activation)” value does the source give for `Cc1cccc(NC(=O)c2cccc3c2-c2ccccc2C3=O)c1C` here?
**A.** Its value is inactive: -0.127%.

**Q.** Which Potency does the source give for `CCOc1ccc(-n2c(SCC(N)=O)nc3sc4c(c3c2=O)CCN(C)C4)cc1` here?
**A.** The Potency was inconclusive: 35.5 µM [activator, partial curve, poor fit].

**Q.** For `Fc1ccc(-c2cc(-c3nnc4sc(-c5cccs5)nn34)[nH]n2)cc1`, which “growth rescue (activation)” value is on record?
**A.** Its value is inactive: 12.8%.

**Q.** With `CCn1c(COc2ccccc2C)nnc1SCC(=O)CC(=O)Nc1ccccc1` as the compound, how does the Potency read?
**A.** The Potency was inconclusive: 31.6 µM [activator, partial curve, poor fit].

**Q.** For `CC(C)[C@H](NC(=O)c1ccc(C(C)(C)C)cc1)C(=O)N1CCN(Cc2ccc3c(c2)OCO3)CC1`, which Potency is on record?
**A.** Its Potency is inconclusive: 11.2 µM [activator, partial curve].
